Experimental data as given in paper PMC8783668.
Residue numbers refer to the chain shown, from its start. Names may count otherwise. No constants are given. Whether binding was seen depends on the method and setting. For part of these data: Binding seen in cells or lysates may run through a third protein. Some entries that bind do so weakly or less than the wild type. Tags and fused reporters may be left off the sequences shown. Each block holds one binder with its values, some of them ahead of it.

What was measured:
[1] = target: T1, calcium-dependent protein kinase 32 (CPK32), yeast two-hybrid fusion (Arabidopsis) (UniProt Q6NLQ6); assay: two-hybrid; Yeast Two-Hybrid in yeast; CPK32/pDEST32 as negative control
T1 sequence: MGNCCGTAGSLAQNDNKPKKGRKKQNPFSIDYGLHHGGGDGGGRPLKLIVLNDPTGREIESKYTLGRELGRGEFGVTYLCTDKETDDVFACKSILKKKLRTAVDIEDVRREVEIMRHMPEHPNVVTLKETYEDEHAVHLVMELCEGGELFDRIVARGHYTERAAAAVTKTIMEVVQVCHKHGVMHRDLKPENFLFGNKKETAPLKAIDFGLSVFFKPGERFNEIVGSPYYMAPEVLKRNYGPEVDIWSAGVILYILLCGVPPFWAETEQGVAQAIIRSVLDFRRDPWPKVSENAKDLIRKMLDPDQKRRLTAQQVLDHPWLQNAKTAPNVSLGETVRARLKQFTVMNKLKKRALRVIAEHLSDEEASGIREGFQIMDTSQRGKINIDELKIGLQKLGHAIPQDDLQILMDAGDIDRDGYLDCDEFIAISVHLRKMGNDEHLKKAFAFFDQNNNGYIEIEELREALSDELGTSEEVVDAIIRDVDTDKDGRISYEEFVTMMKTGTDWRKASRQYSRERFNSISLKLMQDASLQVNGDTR

[2] = target: T2, FLOWERING CONTROL LOCUS A (FCA), yeast two-hybrid fusion (Arabidopsis) (UniProt O04425); assay: as above
T2 sequence: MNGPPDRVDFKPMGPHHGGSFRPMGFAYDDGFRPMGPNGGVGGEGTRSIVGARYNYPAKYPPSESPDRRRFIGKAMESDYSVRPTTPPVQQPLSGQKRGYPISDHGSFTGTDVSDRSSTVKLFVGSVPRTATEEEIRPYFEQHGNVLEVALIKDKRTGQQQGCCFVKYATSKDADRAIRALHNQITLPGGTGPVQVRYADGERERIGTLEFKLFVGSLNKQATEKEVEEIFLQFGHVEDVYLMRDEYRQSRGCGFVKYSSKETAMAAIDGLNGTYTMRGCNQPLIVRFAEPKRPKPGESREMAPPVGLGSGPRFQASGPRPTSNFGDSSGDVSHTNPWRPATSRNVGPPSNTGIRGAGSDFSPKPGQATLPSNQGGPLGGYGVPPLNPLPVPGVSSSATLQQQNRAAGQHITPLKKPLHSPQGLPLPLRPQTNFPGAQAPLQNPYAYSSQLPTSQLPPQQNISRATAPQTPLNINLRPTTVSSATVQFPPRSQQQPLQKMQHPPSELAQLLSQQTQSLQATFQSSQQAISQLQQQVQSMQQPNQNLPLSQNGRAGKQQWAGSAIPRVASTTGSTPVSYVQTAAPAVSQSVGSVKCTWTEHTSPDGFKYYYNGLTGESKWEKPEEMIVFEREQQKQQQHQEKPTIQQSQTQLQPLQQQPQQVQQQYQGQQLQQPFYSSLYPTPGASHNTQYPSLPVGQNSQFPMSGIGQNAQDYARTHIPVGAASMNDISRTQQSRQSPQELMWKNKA

[3] = target: T3, FCA fused to the N-terminal half of YFP (Arabidopsis) (UniProt O04425); assay: split reporter; BiFC with the two halves of YFP in N. benthamiana leaves; DAPI to stain the nucleus
T3 sequence: T2 sequence

[4] = target: T4, FY-YN (FY fused to the N-terminal half of YFP) (Arabidopsis) (UniProt Q6NLV4); assay: as above
T4 sequence: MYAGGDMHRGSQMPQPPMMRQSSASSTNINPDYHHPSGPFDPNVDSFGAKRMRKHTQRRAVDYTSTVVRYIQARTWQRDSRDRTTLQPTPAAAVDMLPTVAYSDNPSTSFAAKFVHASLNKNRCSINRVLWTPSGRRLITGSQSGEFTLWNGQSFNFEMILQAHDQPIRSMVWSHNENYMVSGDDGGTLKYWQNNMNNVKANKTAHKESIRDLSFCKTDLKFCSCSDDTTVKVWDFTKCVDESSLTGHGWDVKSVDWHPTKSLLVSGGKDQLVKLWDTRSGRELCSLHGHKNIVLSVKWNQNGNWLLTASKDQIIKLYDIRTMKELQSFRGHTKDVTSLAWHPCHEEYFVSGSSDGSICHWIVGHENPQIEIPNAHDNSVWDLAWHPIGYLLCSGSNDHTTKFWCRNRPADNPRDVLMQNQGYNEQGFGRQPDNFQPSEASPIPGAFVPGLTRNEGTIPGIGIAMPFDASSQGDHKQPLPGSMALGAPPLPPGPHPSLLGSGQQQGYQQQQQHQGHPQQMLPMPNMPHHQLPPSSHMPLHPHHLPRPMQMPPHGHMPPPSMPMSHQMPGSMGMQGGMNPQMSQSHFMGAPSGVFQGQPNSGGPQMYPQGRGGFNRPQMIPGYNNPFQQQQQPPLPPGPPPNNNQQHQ

B3: CPK32 fused to the C-terminal half of YFP (enzyme, UniProt Q6NLQ6 1-538)
chain: T1 sequence
- binding [3]: binds

B4: FCA^S592D fused to the C-terminal half of YFP (protein, UniProt O04425 1-747)
chain: T2 sequence with S592D
- binding [4]: binds

B5: FCA^S592A fused to the C-terminal half of YFP (protein, UniProt O04425 1-747)
chain: T2 sequence with S592A
- binding [4]: no binding

The next lines start with the values.

- binding [1]: no binding
B1: FLOWERING LOCUS Y (FY), yeast two-hybrid fusion (protein, UniProt Q6NLV4 1-647)
chain: T4 sequence

- binding [2]: binds
B2: calcium-dependent protein kinase 32 (CPK32), yeast two-hybrid fusion (enzyme, UniProt Q6NLQ6 1-538)
chain: T1 sequence

- binding [1]: no binding
B6: FLK, yeast two-hybrid fusion (protein, UniProt Q9SR13 1-577)
chain: MAEAEDQQNFVAHNGDQVPDQGSDELHNGLPYQVHDETLVHQPYEVEDPILEPQQYEVPDPTLEPQQYEVPDQTLEPQQYEVDDQLEYHQYQLQDQANEDVQDHSQDDLQYQPQNQEQFQLQDEAHDQAQYQAQGDVQDHNGDEVQDKVEDEEGIPEHLESLQKSEPEEDATVGGEEKRWPGWPGETVFRMLVPAQKVGSIIGRKGDVIKKIVEETRARIKILDGPPGTTERAVMVSGKEEPESSLPPSMDGLLRVHMRIVDGLDGEASQAPPPSKVSTRLLVPASQAGSLIGKQGGTVKAIQEASACIVRVLGSEDLPVFALQDDRVVEVVGEPTSVHRALELIASHLRKFLVDRSIIPFFENQMQKPTRQMDHMPPPHQSWGPPQGHAPSVGGGGYGHNPPPYMQPPPRHDSYYPPPEMRQPPMEKQPHQGISAYGREPPMNVHVSSAPPMVAQQVTQQMQIPLSYADAVIGTSGSNISYTRRLSGATVTIQETRGVPGEMTVEVSGTGSQVQTAVQLIQNFMAEAGAPAPAQPQTVAPEQQGYNPYATHGSVYAAAPTNPPGGYATDYSSGYGY
